In all, about 48,000 compounds went through this assay and about 1,200 (2.5%) were called active. Roughly 2% stayed inconclusive and do not appear here.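 Rule for the calls: active = activation of at least 60% and not above a set upper limit (about 1 call in 100 departs from these limits); inconclusive = activation of 40% to 60%, or above that upper limit; inactive = activation under 40%.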 The list shows a part of the results.

In the assay the target is Probable G-protein coupled receptor 32 (Homo sapiens) (UniProt O75388). The assay is described as follows: qHTS for Agonists of Human Resolvin D1 Receptor DRV1. Particulars: CHO-K1 GPR32 beta-arrestin PathHunter luminescence, 90 min; at 76.9 µM; active compounds read high; zero percent set by DMSO-only wells. The method in brief: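 Using DMSO wells as EC0, agonist-induced signal was taken as chemiluminescence from beta-Gal reconstituted upon beta-arrestin recruitment to GPR32 in CHO-K1 cells after 90 min compound treatment.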
Chain of UniProt O75388 (O75388 whole entry, looked up): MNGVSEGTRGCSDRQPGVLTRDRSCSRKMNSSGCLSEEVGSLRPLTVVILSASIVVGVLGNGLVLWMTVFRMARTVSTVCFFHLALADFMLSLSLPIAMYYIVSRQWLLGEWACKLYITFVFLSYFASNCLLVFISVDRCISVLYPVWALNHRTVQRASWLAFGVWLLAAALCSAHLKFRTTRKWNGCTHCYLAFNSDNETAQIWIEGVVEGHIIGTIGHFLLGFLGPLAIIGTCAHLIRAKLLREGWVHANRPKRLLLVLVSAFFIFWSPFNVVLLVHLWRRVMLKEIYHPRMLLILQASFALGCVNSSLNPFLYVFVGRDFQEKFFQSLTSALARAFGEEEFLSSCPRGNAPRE
For orientation: In qHTS, concentration-response curves come from the screen itself.
Consider `COc1ccc(NC(=O)CSc2nc3ncccc3[nH]2)c(OC)c1`, for which the activation is inactive: -0.99%.
Under `Cn1c(=O)cc(OCC(=O)N2CCN(c3ccccc3)CC2)c2ccccc21` stands inactive: 6.94%; under `COc1ccc(NC(=O)C2CCCN(C(=O)c3cnn(-c4ccc(F)cc4)c3-n3cccc3)C2)cc1` (centres undefined), inactive: -5.42%.
In the case of `COc1ccc(-c2cc(C(=O)Oc3cccc(C)c3)c3ccccc3n2)cc1` it was inactive: -22.5%; in that of `Cc1ccc(CCNC(=O)C2CCN(c3nnc(C)c4c(C)n(-c5ccccc5)nc34)CC2)cc1`, inactive: -0.964%; in that of `COc1ccc(C)cc1NCc1nnc2n1CCCCC2`, inactive: 11.1%.
In the case of `Cc1cc(OC(C)C(=O)N(Cc2ccco2)Cc2ccccc2F)cc(C)c1Cl` (centres undefined) it was inactive: -14.6%; in that of `O=C(CCCCn1c(=O)c2ccccc2n(Cc2ccc(Cl)cc2)c1=O)NCc1ccccc1Cl`, inactive: -5.32%.
As to `CCc1ccccc1NC(=O)c1ccc(F)c(S(=O)(=O)NC2CCCCCC2)c1`, the activation is inactive: -26%.
In the case of `Cc1ccc(NC(=O)CSc2nc3ccccc3c3nc(CCn4cncc4C)nn23)cc1F` it was inactive: 33.9%; in that of `Cc1ccc(NC(=O)CSCc2cnn(-c3ccccc3)c2-n2cccc2)c(C)c1`, inactive: -13%.
Under `CCOc1cccc2sc(N(Cc3cccnc3)C(=O)C3CCCCC3)nc12` stands inactive: -32.7%; under `Cc1ccc(C)c(N2CCN(CCCNC(=O)C3COc4ccccc4C3)CC2)c1` (centres undefined), inactive: 6.95%; under `CN1CCN(C(c2ccccc2Cl)c2sc3nc(-c4ccco4)nn3c2O)CC1` (centres undefined), inactive: -14.8%.
In the case of `CCC(=O)N1CCc2cc(Br)cc(S(=O)(=O)N3CCN(c4ccc(C(C)=O)cc4)CC3)c21` it was inactive: -2.24%; in that of `Cc1cccc(NC(=O)c2ccc(C(=O)Nc3cccc(C)c3C)cc2)c1C`, inactive: -1.23%.
`COc1ccccc1CNC(=O)CC1N=C2c3ccccc3N=C(SCC(=O)Nc3ccc(F)cc3)N2C1=O` (centres undefined): the activation is inactive: 5.6%.
In the case of `O=C(c1nc(-c2ccc(Cl)cc2)n2c1CCCCC2)N1CCN(c2ccccc2F)CC1` it was inactive: 22.3%; in that of `COc1ccccc1Nc1nn2c(=O)c3ccc(C(=O)N4CCC(C)CC4)cc3nc2s1`, inactive: -2.71%.
In the case of `O=C(Cn1nc(-c2ccccc2)ccc1=O)NCc1ccc(F)cc1Cl`, the activation is inactive: -18%.
As for `COc1ccc(S(=O)(=O)Nc2cccc(-c3ccc(N4CCOCC4)nn3)c2)cc1F`, the activation was inactive: -3.08%.
Consider `COc1cc(NC(=O)c2c(-c3ccc(C)cc3)nnc3ccccc23)cc(OC)c1OC`, for which the activation was inactive: -3.23%.
Take `Cc1oc2c(c1C(=O)Nc1cccc(Br)c1)C1=NCCN1C=N2`: the activation was inactive: -14.4%.
Under `CC1=C(C(=O)OC2CCCC2)C(c2ccc(F)cc2F)CC(=O)N1` (centres undefined) stands inactive: 15.2%.
Regarding `Cc1ccc(CS(=O)(=O)c2cn(CC(=O)N(C)c3ccccc3)c3ccccc23)cc1`, the activation was inactive: -5.52%.
Under `Cc1nc2scc(C)n2c(=O)c1S(=O)(=O)NCc1ccccc1Cl` stands inactive: 2.79%.
In the case of `CC(=O)c1ccc(N2C(=O)N(Cc3cccc(C(F)(F)F)c3)c3ccccc3S2(=O)=O)cc1` it was inactive: 2.01%; in that of `CC(=O)Nc1ccc(NC(=O)CCCc2nc(-c3ccc(C(C)(C)C)cc3)no2)cc1`, inactive: 0.62%.
In the case of `Cc1ccc(NC(=O)c2cc(C)nn2-c2ccccc2)cc1` it was inactive: -14.8%.
With `COc1ccc(N(Cc2cccs2)C(=O)c2ccccc2C)cc1`, the activation was inactive: -14.5%.
In the case of `CCOc1cc(C(=O)Nc2ccc3oc(-c4ccc(F)cc4Cl)nc3c2)cc(OCC)c1OCC` it was inactive: -1%; in that of `CCCCNC(=O)CCC(=O)NNc1nc2ccccc2c2nc(-c3ccccc3)nn12`, inactive: 1.53%.
For the molecule `COc1ccc(OCC(=O)NCC2(N3CCN(C)CC3)CCCCC2)cc1`, the activation is inactive: -2.7%.
Under `COc1cc(C2C(=O)N(C3CCCCC3)CC(=O)N2C2CCCC2)ccc1OC(C)C` (centres undefined) stands inactive: -17.7%.
For the molecule `O=C(CSc1nc(-c2ccc(F)cc2)cc(C(F)(F)F)n1)NCc1ccccc1`, the activation was inactive: 24.4%.
On to `CCOC(=O)c1ccc2c(c1)N(Cc1cccc(OC)c1)C(=O)c1ccccc1S2(=O)=O`, for which the activation was inactive: -5.27%.
In the case of `Cc1cccc(C(=O)Nc2c3c(nn2-c2ccc(Cl)cc2)CS(=O)(=O)C3)c1` it was inactive: -19%; in that of `O=[N+]([O-])c1cc(-c2nc(-c3ccccc3)no2)ccc1NCC1CCCO1` (centres undefined), inactive: -8.46%; in that of `CC(C)(C)OC(=O)N1CCC(c2c(C(=O)NC3CCN(Cc4ccccc4)CC3)cnn2-c2cccc(F)c2)CC1`, inactive: -7.96%.
In the case of `CCOC(=O)c1c(-c2ccccc2)oc2ccc(NS(=O)(=O)c3ccc(OC)cc3)cc12` it was inactive: -35.5%.
As for `O=S(=O)(c1ccc(F)cc1)N1CCC(Oc2ccc(-n3cnnn3)cc2)CC1`, the activation was inactive: -5.74%.
Under `COc1cccc(CNC(=O)c2nnn(CC(=O)Nc3cc(Cl)ccc3C)c2N)c1` stands inactive: -2.51%; under `CCC(=O)N1CCc2cc(Br)cc(S(=O)(=O)CCC(=O)Nc3cccc(CC)c3)c21`, inactive: 26%.
Under `Cc1ccc(-c2ccc(=O)n(Cc3ccc(F)cc3)n2)cc1` stands inactive: 14.8%; under `COc1cccc(CNC(=O)Cn2c(=O)oc3cc(S(=O)(=O)N4CCCC4)ccc32)c1`, inactive: 19.9%.
Turning to `Cc1ccc(Nc2cc(C)nc3nc(Cc4ccc(Cl)cc4)nn23)cc1`, the activation is inactive: -0.249%.
Under `Cc1cccc(N2C(=O)C(CC(=O)Nc3cccc(F)c3)N(Cc3cccs3)C2=O)c1` (centres undefined) stands inactive: -11.2%.
With `CCOc1ccc(CCNC(=O)CCCc2cc(-c3ccc(OCC)cc3)on2)cc1`, the activation is inactive: 16.6%.
Under `Cc1ccc(CN2CCSc3ccc(C(=O)Nc4ccc(Cl)cc4)cc32)cc1` stands inactive: -8.99%; under `CCCN(CCC)CCCNC(=O)c1cc2c(=O)oc3ccc(C)cc3c2s1`, inactive: -2.96%; under `CCn1cc(C(=O)N2CCN(c3cc(Cl)ccc3C)CC2)c2cc(OC)c(OC)cc2c1=O`, inactive: 17.9%.
In the case of `CC(NC(=O)C1(c2cccs2)CCOCC1)c1ccccc1` (centres undefined) it was inactive: -9.65%.
Under `Cc1nc2cccnc2n1C1CCN(S(=O)(=O)c2ccc(Cl)cc2)CC1` stands inactive: 48.7%; under `Cc1ccccc1CN1CCC(CNc2ncnc3onc(-c4ccc(Cl)cc4)c23)CC1`, inactive: 10.7%; under `CN(C)S(=O)(=O)n1cc(/C=C(\NC(=O)c2ccccc2F)C(=O)NCCCn2ccnc2)c2ccccc21`, inactive: 5.26%.
Consider `O=C(Cc1csc2ccccc12)NCc1cccc(Br)c1`, for which the activation is inactive: -1.02%.
Under `Cc1ccc2nc(/C(C#N)=C/c3cccc(Br)c3)[nH]c2c1` stands inactive: 25.7%; under `Cc1ccc(NC(=O)C2CCCN(c3ncnc4c3nc3n4CCCCC3)C2)cc1F` (centres undefined), inactive: 2.64%; under `O=C(O)CC(NS(=O)(=O)c1ccc(Cl)s1)c1ccccc1` (centres undefined), inactive: 10.6%.
Under `Cc1nc2cccnc2n1-c1cccc(C(=O)NCc2ccc(OC(C)C)cc2)c1` stands inactive: 8.01%.
`COc1cc(NS(=O)(=O)c2ccc(NC(=O)C(C)Oc3ccc(Cl)cc3Cl)cc2)nc(OC)n1` (centres undefined): the activation was inactive: 7.77%.
Under `O=C(Nc1cccc(C(F)(F)F)c1)C1CCN(c2nnc(-n3cccc3)s2)CC1` stands active: 93.8%; under `CCOc1ccc(NC(=O)c2c(NC(=O)c3ccco3)sc3c2CCC(C(C)(C)C)C3)cc1` (centres undefined), inactive: -7.1%.
In the case of `Cc1cc(C)cc(Oc2coc3c(CN4CCN(C)CC4)c(O)ccc3c2=O)c1` it was inactive: 27.7%; in that of `O=C(NCc1ccccc1Cl)C1CCN(S(=O)(=O)c2ccc3c(c2)CCCN3C(=O)C2CCC2)CC1`, inactive: -7.11%; in that of `CCC12CN3CC(C)(CN(C1)C3c1ccc(O)cc1O)C2=O` (centres undefined), inactive: -9.17%.
As for `Cc1cc(C)n(CC(=O)Nc2ccc(F)c(F)c2)c(=O)c1C#N`, the activation was inactive: -4%.
As for `O=C(Cn1c(=O)n(Cc2ccco2)c(=O)c2ccc(C(=O)NC3CCCC3)cc21)Nc1ccc(F)cc1`, the activation is inactive: -4.06%.
Regarding `COc1ccc(-n2nc(C(=O)NCCc3ccc(Cl)cc3)c3c4ccccc4n(C)c3c2=O)cc1Cl`, the activation was inactive: 10.1%.
Take `COc1ccc(CCNC(=O)c2c(O)nc3cc(C)ccn3c2=O)cc1OC`: the activation is inactive: -4.33%.
Turning to `O=C(Cn1nc2c(cc1=O)CCCC2)Nc1ccc(F)cc1F`, the activation is inactive: 0.297%.
With `Cc1cc(-c2ccc(C)c(S(=O)(=O)N3CCCC(C)C3)c2)on1` (centres undefined), the activation is inactive: -9.56%.
Under `CCc1ccc(CNC(=O)c2ccc(CSc3nc4ccncc4n3Cc3ccc(OC)cc3)cc2)cc1` stands inactive: -7.59%; under `COc1ccc(N2CCN(C(=O)Cc3coc4ccc(C)cc34)CC2)cc1`, inactive: -21.6%.
In the case of `O=S(=O)(Nc1cccc(Cl)c1)c1ccc2[nH]c3c(c2c1)CCCCCC3` it was active: 61.7%; in that of `CCOC(=O)c1c(NC(C)=O)c2c3c(sc2n1Cc1nc(-c2ccc(Cl)cc2)oc1C)CCCC3`, inactive: -20%.
Under `CC(=O)c1cccc(NC(=O)CCS(=O)(=O)c2cc3c(cc2C)NC(=O)CO3)c1` stands inactive: -5.18%.
With `CCN(CC)C(=O)C1=C(C)Nc2nc3ccccc3n2C1c1ccc(Br)cc1` (centres undefined), the activation was inactive: 5.45%.
Under `CCc1noc(-c2ccc(NC(C)c3ccccc3)c([N+](=O)[O-])c2)n1` (centres undefined) stands inactive: 1.5%; under `CC(C)Oc1cccc(NC(=O)C2CCN(S(=O)(=O)Cc3ccccc3)CC2)c1`, inactive: -3.23%; under `COc1ccc(C)cc1NC(=O)C(=O)NCCc1sc(-c2ccc(Cl)cc2)nc1C`, inactive: 12.9%.
For the molecule `Cc1ccccc1-c1nnc(CN2CCN(c3cc(Cl)ccc3C)CC2)o1`, the activation was inactive: -12.7%.
Under `CCOC(=O)c1c(S(=O)(=O)N2CCC(C(=O)N3CCN(c4cccc(C)c4C)CC3)CC2)c(C)n(C)c1C` stands inactive: 15%.
As for `CCC(CC)C(=O)Nc1cc(-c2cn3cccnc3n2)ccc1OC`, the activation is inactive: -12.8%.

Source of the values: PubChem BioAssay AID1346428 (National Center for Advancing Translational Sciences (NCATS), 2018).
